Assay results taken from the supplement of paper PMC3334620.
The full ranking holds about 33,000 sequences; the median of “E-score (-0.5 to 0.5)” is about -0.016, and the highest 2% start at about 0.32. The list shows a part of the results.

Biological target: T1, Stp1 (UniProt B3LFK1)
T1 sequence: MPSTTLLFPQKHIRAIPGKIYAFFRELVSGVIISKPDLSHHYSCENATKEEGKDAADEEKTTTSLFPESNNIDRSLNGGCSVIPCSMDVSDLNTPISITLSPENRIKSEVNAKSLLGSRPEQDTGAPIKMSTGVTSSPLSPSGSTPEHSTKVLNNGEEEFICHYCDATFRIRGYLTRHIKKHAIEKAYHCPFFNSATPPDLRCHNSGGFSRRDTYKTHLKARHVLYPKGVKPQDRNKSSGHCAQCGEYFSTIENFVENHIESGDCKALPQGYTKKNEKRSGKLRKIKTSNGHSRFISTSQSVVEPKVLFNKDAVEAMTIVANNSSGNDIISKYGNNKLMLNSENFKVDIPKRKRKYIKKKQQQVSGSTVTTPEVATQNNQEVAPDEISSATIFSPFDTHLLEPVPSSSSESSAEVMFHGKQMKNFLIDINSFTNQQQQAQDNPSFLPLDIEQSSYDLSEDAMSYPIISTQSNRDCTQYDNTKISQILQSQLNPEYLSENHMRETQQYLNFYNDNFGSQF
Test: PBM E-score (8-mer binding enrichment) (E-score (-0.5 to 0.5)); higher = stronger / more preferred TF binding; most listed sequences are background and not binding sites
Settings: protein concentration: 200 nM; construct: GST-full length
Method in brief: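 Each ungapped eight-base word and its reverse complement, pooled, received an E-score from the Universal PBM Analysis Suite. Underlying scans, normalised with masliner, recorded fluorescent anti-GST bound to GST-tagged yeast transcription factors. These were applied at about 100-200 nM to universal all-10-mer Agilent arrays double-stranded by primer extension.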

Row | Sequence | PBM E-score
1 | AAACTTGT | 0.178
2 | ATCCGCAT | 0.236
3 | CTAGAACC | -0.0247
4 | GGCTCCAC | 0.0719
5 | GCGAGGAA | 0.00386
6 | GCTCGAAC | -0.0559
7 | ACACTTAC | 0.0666
8 | AGTCAAGG | -0.242
9 | GACGTCCA | -0.123
10 | TATGTTGA | 0.0271
11 | CCAGGACA | -0.206
12 | GATGGTCC | -0.219
13 | ACGCAATA | 0.218
14 | GTCCAAAC | -0.105
15 | ACTCACAC | -0.063
16 | AACAGAGG | -0.112
17 | AAGCAACA | -0.0328
18 | CAGGGTGC | -0.251
19 | GATGAGAA | 0.0259
20 | CCGTCCGC | 0.124
21 | ATAAAGCG | 0.102
22 | AGTTCGCG | 0.0922

Row | Sequence | PBM E-score
23 | CGTACGTC | -0.133
24 | GTACCATA | -0.129
25 | AGAGGTTG | -0.147
26 | AAATAGAC | -0.222
27 | GGGGAGGA | -0.375
28 | AAAACCGT | 0.114
29 | AATCGGAA | 0.153
30 | AGCTTCCT | -0.159
31 | CTTGTAAA | 0.0124
32 | GCAGGGAA | 0.0128
33 | CTTCTACA | -0.0471
34 | CGCCAACA | -0.0204
35 | GAACCTTA | 0.0534
36 | AGGACCCG | -0.0845
37 | ATTTCGTG | 0.247
38 | AGTAATGG | -0.115
39 | ATGGTTGG | -0.12
40 | GGGATCTA | -0.2
41 | ATGCTGTA | -0.0563
42 | GAGTATCC | -0.185
43 | CATAGACC | -0.128
44 | GGGTTCAC | 0.0272

Row | Sequence | PBM E-score
45 | ATTTGTAA | 0.109
46 | AATATATA | 0.252
47 | CAGCCCTA | 0.116
48 | CTAACAGC | 0.0206
49 | AACGCAGT | -0.0994
50 | ATAGCCGA | 0.0885
51 | TCGTCCCA | -0.243
52 | CTCAGTGA | -0.101
53 | AAGTGCTC | -0.236
54 | GCTGTAGA | -0.0322
55 | ACAATTCT | 0.0384
56 | ATGTGAAA | 0.138
57 | ACCACCAA | -0.13
58 | GAGTATCA | -0.127
59 | TCGCATCA | 0.111
60 | CAGTAGTA | -0.0834
61 | ATGATCAG | -0.0901
62 | GGAAGCCC | -0.267
63 | CTCTAGCC | -0.139
64 | ATCCAGGC | -0.0908
65 | CGCGTTGA | 0.179
66 | CCGAAGAC | -0.119

Row | Sequence | PBM E-score
67 | ACCGGAGA | -0.116
68 | GCCCTCAA | -0.271
69 | CTGTCGTA | -0.0535
70 | CGATATAC | 0.105
71 | GGTCCCTA | -0.0655
72 | AACCCGAG | -0.0736
73 | CTCGCCGC | 0.353
74 | CGTAGAGA | -0.0187
75 | CTTCTCAA | 0.0107
76 | ACGTGCTA | -0.0123
77 | CACTGCGA | -0.0083
78 | ATCCACGC | -0.07
79 | GTAATGAC | -0.182
80 | CTCTATTC | -0.0597
81 | GTTTTACA | 0.0556
82 | GTCTAAGA | 0.0284
83 | GTAGGTTA | -0.113
84 | GCATCGGC | 0.084
85 | GGCGGAGA | 0.0979
86 | CAATTCGC | 0.18
